Assay results published in PubChem BioAssay AID1461 (National Center for Advancing Translational Sciences (NCATS), 2008).
Among all 220,000 compounds or so, about 2,300 (1%) were called active. The inconclusive results got no clear call from the source; some entries with a clear call stand among them for comparison. The call rests on the fitted dose curve; in most records, active means well fitted inhibition curve with a large enough effect; inconclusive means small, poorly fitted or top-dose-only effect, or effect the other way; inactive means no such curve, though single readings can be large or run the other way. Potencies of inconclusive entries are doubtful fits and often do not repeat.

target: Neuropeptide S receptor (Homo sapiens) (UniProt Q6W5P4); test: qHTS Assay for Antagonists of the Neuropeptide S Receptor: cAMP Signal Transduction; details: CHO-NPSR cells, cAMP TR-FRET, antagonist mode; activity change, negative = inhibition: at 38.3 µM (top of the series) unless noted; further: nearly all actives have a fitted effect of over 50% in size
On the % scale 0 is the no-effect control and ±100 the full control effect; potency means the concentration at half of the fitted maximal effect; tags describe the fitted curve by direction and shape.

Chain of UniProt Q6W5P4 (Q6W5P4 whole entry, looked up): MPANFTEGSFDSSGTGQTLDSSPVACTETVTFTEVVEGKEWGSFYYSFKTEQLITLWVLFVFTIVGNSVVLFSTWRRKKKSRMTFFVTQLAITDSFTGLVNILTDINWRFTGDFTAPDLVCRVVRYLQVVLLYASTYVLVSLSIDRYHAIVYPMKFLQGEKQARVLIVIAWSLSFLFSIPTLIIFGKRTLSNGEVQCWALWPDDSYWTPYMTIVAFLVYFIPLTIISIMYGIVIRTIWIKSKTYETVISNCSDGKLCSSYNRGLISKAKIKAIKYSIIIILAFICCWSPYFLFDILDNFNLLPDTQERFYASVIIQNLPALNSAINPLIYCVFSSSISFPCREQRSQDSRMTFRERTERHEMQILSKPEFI

| Structure (SMILES) | Potency | activity change, negative = inhibition |
| --- | --- | --- |
| CCOc1ccc(-c2onc(C(F)(F)F)c2-c2cscn2)c(O)c1 | inconclusive: 10 µM [inhibitor, single point] | – |
| O=C(CN1CCC(C(O)(c2ccccc2)c2ccccc2)CC1)Nc1ccccc1 | inconclusive: 25.1 µM [inhibitor, single point] | – |
| CSc1nc(SCC(=O)NC(c2ccccc2)c2ccccc2)c2c3c(sc2n1)CN(C)CC3 | inconclusive: 10 µM [inhibitor, single point] | – |
| COc1ccc2[nH]c(=O)c(CN(Cc3cccnc3)C(=O)Nc3ccccc3)cc2c1 | inconclusive: 6.31 µM [inhibitor, partial curve] | – |
| Cc1ccc(-c2nn(-c3ccccc3)cc2/C=N/NC(=O)CSc2nnc(C)n2-c2ccccc2)cc1 | inactive | – |
| N#Cc1c(N)nc(SCC(=O)NCCc2ccccc2)c(C#N)c1-c1cccs1 | inconclusive: 25.1 µM [activator, single point] | – |
| COc1ccccc1-n1c(=O)oc2ccc(Cl)cc2c1=O | inactive | – |
| CC(C)CN1C(=O)CC(Sc2ccccc2C(=O)O)C1=O (stereo not given) | inactive | – |
| CC(C)(C)c1ccc(-c2nc(NCc3cccnc3)c3ccccc3n2)cc1 | inconclusive: 25.1 µM [inhibitor, single point] | – |
| c1ccc(-c2cnc(SCCN3CCOCC3)n2CC2CCCO2)cc1 (stereo not given) | inactive | – |
| O=C1CC(N(CCc2ccccc2)C(=S)Nc2ccccc2)C(=O)N1c1ccc(F)cc1 (stereo not given) | inconclusive: 12.6 µM [inhibitor, single point] | – |
| O=C(CC1Nc2cccc3cccc(c23)NC1=O)Nc1ccc(F)cc1 (stereo not given) | inactive | – |
| CC(Cc1cccs1)NC(=O)Nc1ccc([N+](=O)[O-])cc1 (stereo not given) | inconclusive: 10 µM [inhibitor, single point] | – |
| COC(=O)CC(c1ccc(OC)c(OC)c1)c1ccc(OC)c(OC)c1 | inactive | – |
| CN(CCO)c1cc(NCCCN2CCC(Cc3ccccc3)CC2)c2nonc2c1[N+](=O)[O-] | inconclusive: 10 µM [inhibitor, single point] | – |
| Cc1ccc(Nc2nc(CSc3nnnn3-c3ccccc3)cc(=O)[nH]2)cc1 | inconclusive: 15.8 µM [inhibitor, single point] | – |
| O=C(c1ccccc1)c1ccccc1N1C(=O)C=CC1=O | inconclusive: 25.1 µM [activator, single point] | – |
| O=c1cnc2ccccc2n1CC1CCCCC1 | inconclusive: 5.01 µM [inhibitor, single point] | – |
| CC(C)N(C(=O)CSc1nc(COc2ccccc2)nc2ccccc12)C(C)C | inconclusive: 10 µM [inhibitor, single point] | – |
| FC(F)C(F)(F)c1cc(-c2ccc(Cl)cc2)n[nH]1 | inconclusive: 25.1 µM [inhibitor, single point] | – |
| CCc1nnc(NC(=O)CCC(=O)N2CCN(CCc3ccccc3)CC2)s1 | inconclusive: 2.51 µM [inhibitor, single point] | – |
| COc1ccc(C(c2c(C)[nH]n(C(N)=S)c2=O)C(C#N)C#N)cc1 (stereo not given) | inconclusive: 12.6 µM [inhibitor, single point] | – |
| COc1ccc(-c2[nH]c(-c3ccc4c(c3)OCO4)nc2-c2ccccc2)cc1 | inconclusive: 12.6 µM [inhibitor, single point] | – |
| O=C(c1ccc2c(c1)N(Cc1ccccc1)CCS2)N1CCCCC1 | – | inconclusive: -33.1% [inhibitor] [at 46.1 µM] |

| Structure (SMILES) | Potency | activity change, negative = inhibition |
| --- | --- | --- |
| Cc1cc(C=C2C(=O)c3ccccc3C2=O)c(C)n1-c1cccc(C(=O)O)c1 | inactive | – |
| COC(=O)c1cc(=O)n(Cc2cccs2)c(=Nc2ccc(F)cc2)s1 | inconclusive: 10 µM [activator, partial curve] | – |
| CN1CCN(C(=O)c2ccc(CN3CCOCC3)cc2)CC1 | inactive | – |
| CC(C)c1ccc(NC(=O)C(c2ccc3c(c2)OCO3)N2CCN(C(=O)c3ccco3)CC2)cc1 (stereo not given) | inconclusive: 12.6 µM [inhibitor, single point] | – |
| CN(Cc1ccccc1)C(=O)C1CCC(CNS(=O)(=O)c2cccc3cccnc23)CC1 (stereo not given) | inconclusive: 25.1 µM [inhibitor, single point] | – |
| COc1cccc(NC(=O)c2cc(-c3cccnc3)nc3c(Cl)cccc23)c1 | inconclusive: 10 µM [inhibitor, partial curve, poor fit] | – |
| O=C1/C(=C/c2cccnc2)Oc2cc(OS(=O)(=O)c3ccc(F)cc3)ccc21 | inactive | – |
| COc1ccc2oc(=O)c(C(=O)N3CCN(c4ccccc4F)CC3)cc2c1 | inconclusive: 5.01 µM [inhibitor, single point] | – |
| O=C1C(Cl)=C(N2CCN(c3ccccc3[N+](=O)[O-])CC2)C(=O)c2ccccc21 | active: 10 µM | – |
| CC1CCCN(C(=O)C(C)Sc2nc(-c3ccccc3)cc(C(F)(F)F)n2)C1 (stereo not given) | inconclusive: 10 µM [inhibitor, partial curve] | – |
| Cc1nc2ccccc2nc1CSc1nnc(N)s1 | inconclusive: 0.398 µM [inhibitor, partial curve] | – |
| Cc1ccc(NC(=S)NCCO)c(C)c1 | inactive | – |
| CC(C(=O)Nc1ccccc1Sc1ccccc1)N(c1ccccc1)S(C)(=O)=O (stereo not given) | inconclusive: 10 µM [inhibitor, partial curve] | – |
| CCCc1cc(C(=O)NNC(=S)Nc2cccc(C)c2)cs1 | inactive | – |
| OCCN1CCN(CC#CCn2c3ccccc3c3ccccc32)CC1 | inconclusive: 15.8 µM [activator, partial curve] | – |
| Brc1ccc2[nH]c3c(N4CCc5ccccc5C4)ncnc3c2c1 | inconclusive: 31.6 µM [inhibitor, partial curve] | – |
| O=C(O)CCCC(=O)N1CCc2cc(S(=O)(=O)NCc3ccccc3)ccc21 | inactive | – |
| COc1ccccc1CN1CCN(C(CC(C)C)c2nnnn2Cc2cccs2)CC1 (stereo not given) | inconclusive: 2 µM [inhibitor, full curve, poor fit] | – |
| O=C1/C(=N/n2cnnc2)c2ccccc2N1Cc1ccccc1 | inconclusive: 25.1 µM [inhibitor, single point] | – |
| COc1ccccc1N/C=C1/Sc2cc(Cl)ccc2NC1=O | inconclusive: 25.1 µM [inhibitor, single point] | – |
| Cc1ccc(NC(=O)CCC(=O)OCC(=O)c2ccc(Oc3ccc([N+](=O)[O-])cc3)cc2)c(C)c1 | inactive | – |
| COc1ccc(C(=O)NC(=S)N(Cc2ccccc2)Cc2ccccc2)cc1 | inconclusive: 12.6 µM [inhibitor, partial curve] | – |
| COc1cc2c3c(c1)/C(=C1/SC(NC(C)=O)=NC1=O)C(=O)N3C(C)(C)C=C2C | inconclusive: 3.98 µM [inhibitor, partial curve] | – |
| CC(C)Nc1nnc(SCC(=O)c2c(N)n(Cc3ccccc3)c(=O)n(C)c2=O)s1 | inactive | – |

| Structure (SMILES) | Potency | activity change, negative = inhibition |
| --- | --- | --- |
| C=C(C)CSc1nnc2n(N)c(=O)c3ccccc3n12 | inactive | – |
| S=C(NCc1ccncc1)Nc1cccc(Cl)c1 | inactive | – |
| CCc1c(C)nc(SCC(=O)N2CCc3ccccc32)[nH]c1=O | inconclusive: 3.16 µM [inhibitor, single point] | – |
| O=C(Nc1nccs1)c1ccc(COc2ccccc2Br)o1 | inactive | – |
| O=C(CSc1n[nH]c(-c2ccccc2)n1)c1ccc(O)c(O)c1 | inconclusive: 12.6 µM [inhibitor, single point] | – |
| Cc1cc(C)cc(N2C(=O)CC(Sc3nnnn3-c3ccccc3)C2=O)c1 (stereo not given) | inconclusive: 25.1 µM [inhibitor, single point] | – |
| C(=N\Nc1nc(Nc2ccccc2)nc(Nc2ccccc2)n1)/c1cccnc1 | inconclusive: 12.6 µM [inhibitor, single point] | – |
| CCCCN(CCCC)CC(O)COc1ccccc1C(=O)Nc1ccccc1 (stereo not given) | inconclusive: 10 µM [inhibitor, single point] | – |
| Cc1ccc(-c2nc3c(c(=O)c4ccccc4n3C)c(=O)n2-c2ccc(F)cc2)cc1 | inconclusive: 10 µM [activator, partial curve] | – |
| COc1cccc(C=NCCNC(=O)c2nonc2N)c1O | inactive | – |
| Cc1nonc1C1CCCN1Cc1cn[nH]c1-c1ccc(-c2ccccc2)cc1 (stereo not given) | inconclusive: 10 µM [activator, partial curve] | – |
| O=C(c1c(F)c(F)c(F)c(F)c1F)N1CCN(c2cccc(C(F)(F)F)c2)CC1 | inconclusive: 10 µM [inhibitor, single point] | – |
| COc1cc(/C=N\n2nnnc2N)ccc1OCc1ccc(F)cc1 | inconclusive: 15.8 µM [inhibitor, single point] | – |
| CCCn1nc(NC(=O)c2cccs2)c2cc3cccc(C)c3nc21 | inconclusive: 25.1 µM [inhibitor, single point] | – |
| N#Cc1c(NC(=O)CSc2ccccn2)oc(-c2ccccc2)c1-c1ccccc1 | inconclusive: 10 µM [inhibitor, single point] | – |
| C=CCNC(=S)NNC(=O)c1ccccc1 | inactive | – |
| COC(=O)CC1COc2ccccc2N1C(=O)c1ccc(C(C)(C)C)cc1 (stereo not given) | inconclusive: 12.6 µM [inhibitor, single point] | – |
| CC(C)(C)OC(=O)NCCCCCc1nnc(SCc2ccccc2)o1 | inconclusive: 25.1 µM [inhibitor, single point] | – |
| Cc1c(Cl)sn(-c2ccc(Cl)cc2)c1=O | active: 2.51 µM | – |
| CCN(Cc1ccccc1)C(=O)CCCOc1ccccc1 | inactive | – |
| O=C(NC(=S)N1CCN(C/C=C/c2ccccc2)CC1)c1ccc(F)cc1 | inconclusive: 25.1 µM [activator, single point] | – |
| CS(=O)(=O)N(Cc1ccc(C(=O)Nc2ccccc2Sc2ccccc2)cc1)c1ccccc1 | inconclusive: 10 µM [inhibitor, single point] | – |
